Assay results published in PubChem BioAssay AID588453 (National Center for Advancing Translational Sciences (NCATS), 2011).
Where “and” joins values, the source holds several entries; their conditions need not be identical. Equal entries are not always repeated. In all, about 390,000 compounds went through this assay and about 4,000 (1%) were called active. The shares of active, inactive and inconclusive entries below differ from those in the screen. Calls follow the shape of the dose curve; as a rule, active = well fitted inhibition curve with a large enough effect; inconclusive = small, poorly fitted or top-dose-only effect; inactive = no such curve, though single readings can be large or run the other way. Potencies beside an inconclusive call are fits to weak or partial responses and may not hold up.

target: Thioredoxin reductase 1, cytoplasmic (Rattus norvegicus) (UniProt O89049); test: qHTS Assay for Inhibitors of Mammalian Selenoprotein Thioredoxin Reductase 1 (TrxR1): qHTS; settings: recombinant rTrxR1, NADPH fluorescence consumption, selenite substrate; series mostly up to 114 µM; also: nearly all actives have a fitted effect of over 65% in size
UniProt O89049, sequence (O89049 whole entry, looked up): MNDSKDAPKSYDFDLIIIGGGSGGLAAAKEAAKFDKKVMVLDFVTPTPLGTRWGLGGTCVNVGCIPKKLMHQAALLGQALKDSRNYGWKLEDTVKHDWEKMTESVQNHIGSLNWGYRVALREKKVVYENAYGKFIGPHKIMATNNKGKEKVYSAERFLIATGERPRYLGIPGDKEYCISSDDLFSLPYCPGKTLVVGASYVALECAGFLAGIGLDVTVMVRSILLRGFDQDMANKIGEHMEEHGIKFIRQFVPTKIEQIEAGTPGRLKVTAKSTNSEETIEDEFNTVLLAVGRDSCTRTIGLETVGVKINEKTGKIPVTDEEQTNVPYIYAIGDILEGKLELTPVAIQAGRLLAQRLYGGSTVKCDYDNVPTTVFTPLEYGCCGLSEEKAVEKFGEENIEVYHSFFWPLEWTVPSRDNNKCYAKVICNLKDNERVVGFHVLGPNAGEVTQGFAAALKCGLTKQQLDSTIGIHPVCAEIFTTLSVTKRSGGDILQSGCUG
Procedure, shortened: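 Rat TrxR1 (90 nM in the dispensed reagent) was pre-reduced with 400 uM NADPH for 5 min at room temperature, then incubated with compound for 15 min. After 400 uM selenite was added, NADPH fluorescence (Ex 340/Em 450 nm) was followed for 8 min.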
Potency is read from the fitted curve at half-maximal effect; tags tell the direction and shape of the fitted curve.

Row | Structure (SMILES) | Potency
1 | COc1ccc(-c2nc(-c3ccc(Br)o3)no2)cc1OC | inconclusive: 89.1 µM [inhibitor, single point]
2 | Cc1cc2n(n1)SC(Nc1ccccc1)N2 (configuration not stated) | inconclusive: 3.55 µM [inhibitor, single point]
3 | Cc1ccn2c(Nc3ccc4c(c3)OCCO4)c(-c3cccs3)nc2c1 | inactive
4 | Fc1ccc(NC(=S)Nc2cccnc2)c(F)c1F | inconclusive: 20 µM [inhibitor, single point]
5 | O=C(CSc1nccc(-c2cccs2)n1)Nc1ccc(F)c(Cl)c1 | inactive
6 | O=C(COC(=O)c1cc(-c2ccc(Cl)s2)nc2ccccc12)NCc1ccco1 | inconclusive: 22.4 µM [inhibitor, single point]
7 | O=C1CN(C(=O)c2ccco2)C(c2ccc(F)cc2)c2cc(Cl)ccc2N1 (configuration not stated) | inconclusive: 56.2 µM [inhibitor, partial curve]
8 | Cc1cc(C)c(S(=O)(=O)/N=C2/C=C(SCC(=O)O)C(=O)c3ccccc32)cc1C | inconclusive: 70.8 µM [inhibitor, single point]
9 | COc1ccc(-c2oc3ccc(N4CCOCC4)cc3c2C#Cc2ccc(N)cc2)cc1 | inconclusive: 70.8 µM [inhibitor, partial curve, poor fit]
10 | O=C(NC(=S)Nc1ccc(N2CCCCC2)cc1)c1ccco1 | inconclusive: 12.6 µM [inhibitor, full curve]
11 | CC(=O)N1CCN(c2ccc(NCc3ccc4c(c3)OCO4)cc2)CC1 | inconclusive: 15.8 µM [inhibitor, single point]
12 | O=C(N/N=C/c1ccc([N+](=O)[O-])o1)C1CCCC1 | inconclusive: 20 µM [inhibitor, full curve]
13 | Cc1ccccc1C(=O)Nc1nnc(S(=O)(=O)N(C)Cc2ccco2)s1 | active: 44.7 µM
14 | CCCCN(CC)Cc1ccc(CNC(=S)Nc2c(C)cc(C)cc2C)o1 | inactive
15 | COc1cc2sc3cc(NCc4ccc(C)o4)ccc3c(=O)c2cc1OC | inconclusive: 79.4 µM [inhibitor, single point]
16 | O=S(=O)(Nc1cccc(-c2cn3cccnc3n2)c1)c1ccccc1 | inconclusive: 89.1 µM [inhibitor, single point]
17 | Cc1noc2ncnc(Sc3ccc(Cl)cc3)c12 | inconclusive: 20 µM [inhibitor, partial curve, poor fit]
18 | Cc1cccc(OCc2n[nH]c(=S)o2)c1C | inconclusive: 39.8 µM [inhibitor, single point]
19 | CCOc1ccc(CC(=O)Nc2sc(Cc3ccccc3)c(C)c2C(N)=O)cc1OCC | inconclusive: 79.4 µM [inhibitor, partial curve, poor fit]
20 | Cc1oc(/N=C/c2cccc3ccccc23)c(C#N)c1C | inconclusive: 14.1 µM [inhibitor, partial curve, poor fit]
21 | Cc1cccc(N2C(=O)CC(Sc3ncn[nH]3)C2=O)c1 (configuration not stated) | active: 20 µM

Row | Structure (SMILES) | Potency
22 | N[C@@H](Cc1c[nH]c2ccccc12)C(=O)O | inconclusive: 39.8 µM [inhibitor, full curve] and inconclusive: 22.4 µM [inhibitor, single point]
23 | O=C(CCCSc1ccccc1)Nc1nc(-c2ccco2)c(-c2ccco2)s1 | inconclusive: 56.2 µM [inhibitor, partial curve, poor fit]
24 | CC(=O)c1cc(Cl)ccc1OC(=O)c1ccco1 | inactive
25 | O=C(CSc1nnc(CCc2ccccc2)n1-c1ccc(Cl)cc1)c1ccccc1 | inconclusive: 70.8 µM [inhibitor, single point]
26 | CC(=O)C(Sc1nn(C)c(=S)s1)C(=O)Nc1ccccc1 (configuration not stated) | active: 22.4 µM
27 | O=C(O)/C(=C\c1cccc(C(F)(F)F)c1)c1ccc(S(=O)(=O)N2CCCC2)s1 | inconclusive: 56.2 µM [inhibitor, partial curve]
28 | COc1ccc(Cl)cc1C(=O)NNC(=S)NC(=O)c1cc(-c2ccccc2)nc2ccccc12 | inactive
29 | CC(C)(C)c1cc(=O)n(-c2ccccc2)[nH]1 | inconclusive: 7.94 µM [inhibitor, full curve]
30 | CN(C)CCCn1c(N)c(C#N)c2nc(C#N)c(C#N)nc21 | inconclusive: 50.1 µM [inhibitor, partial curve, poor fit]
31 | Cc1cc(Br)c(NC(=O)CCl)c(Br)c1 | inconclusive: 89.1 µM [inhibitor, partial curve]
32 | Cc1ccc(C)c(NC(=O)CCC(=O)N/N=C/c2ccc[nH]2)c1 | inconclusive: 44.7 µM [inhibitor, partial curve]
33 | Cc1cccc(CS(=O)(=O)Cc2ccc(C(=O)NCCc3ccccc3)o2)c1 | inconclusive: 39.8 µM [inhibitor, partial curve, poor fit]
34 | O=C(NC(=S)Nc1nc2ccc(F)cc2s1)c1ccco1 | inactive
35 | COc1ccc2[nH]cc(C(=O)CN(C)CCc3ccc(OC)c(OC)c3)c2c1 | inconclusive: 22.4 µM [inhibitor, partial curve, poor fit]
36 | C/C(=N\NC(=O)c1nnn(-c2nonc2N)c1-c1cccs1)c1ccncc1 | active: 35.5 µM
37 | CCN(CC)CCN1C(=O)C(=O)/C(=C(/O)c2cccc(OC)c2)C1c1ccccn1 (configuration not stated) | inconclusive: 25.1 µM [inhibitor, partial curve, poor fit]
38 | COc1ccc(CN2CCN(C(=O)CCC(=O)c3ccc(C)s3)CC2)cc1OC | inconclusive: 44.7 µM [inhibitor, partial curve]
39 | Cc1cccc(N2CCN(C(=O)c3ccc4c(c3)N(Cc3cccc(Cl)c3)C(=O)c3ccccc3S4=O)CC2C)c1 (configuration not stated) | inactive
40 | CN(Cc1ccccc1)CC(O)COc1ccc(CNCc2ccc(Cl)s2)cc1 (configuration not stated) | inconclusive: 89.1 µM [inhibitor, partial curve, poor fit]
41 | COc1ccc(N(Cc2cc3ccc(C)cc3[nH]c2=O)C(=O)c2ccco2)cc1 | inconclusive: 56.2 µM [inhibitor, partial curve, poor fit]
42 | Cc1ccc(CN(C(=O)c2ccccc2C)C2CCS(=O)(=O)C2)o1 (configuration not stated) | inconclusive: 50.1 µM [inhibitor, partial curve]
